Measured values published in article PMC4336329 (PLoS ONE, 2015).
Screen size: about 310,000 compounds; about 2,200 (0.71%) showed an effect of 50% or more. The effect is printed as a negative number. This is one part of the list.

Molecular target: human ether-à-go-go-related gene (hERG) potassium channel (human, UniProt Q12809)
Test: primary screen, population patch clamp on CHO cells stably expressing hERG

Sequence of human ether-à-go-go-related gene (hERG) potassium channel (Q12809 whole entry, looked up): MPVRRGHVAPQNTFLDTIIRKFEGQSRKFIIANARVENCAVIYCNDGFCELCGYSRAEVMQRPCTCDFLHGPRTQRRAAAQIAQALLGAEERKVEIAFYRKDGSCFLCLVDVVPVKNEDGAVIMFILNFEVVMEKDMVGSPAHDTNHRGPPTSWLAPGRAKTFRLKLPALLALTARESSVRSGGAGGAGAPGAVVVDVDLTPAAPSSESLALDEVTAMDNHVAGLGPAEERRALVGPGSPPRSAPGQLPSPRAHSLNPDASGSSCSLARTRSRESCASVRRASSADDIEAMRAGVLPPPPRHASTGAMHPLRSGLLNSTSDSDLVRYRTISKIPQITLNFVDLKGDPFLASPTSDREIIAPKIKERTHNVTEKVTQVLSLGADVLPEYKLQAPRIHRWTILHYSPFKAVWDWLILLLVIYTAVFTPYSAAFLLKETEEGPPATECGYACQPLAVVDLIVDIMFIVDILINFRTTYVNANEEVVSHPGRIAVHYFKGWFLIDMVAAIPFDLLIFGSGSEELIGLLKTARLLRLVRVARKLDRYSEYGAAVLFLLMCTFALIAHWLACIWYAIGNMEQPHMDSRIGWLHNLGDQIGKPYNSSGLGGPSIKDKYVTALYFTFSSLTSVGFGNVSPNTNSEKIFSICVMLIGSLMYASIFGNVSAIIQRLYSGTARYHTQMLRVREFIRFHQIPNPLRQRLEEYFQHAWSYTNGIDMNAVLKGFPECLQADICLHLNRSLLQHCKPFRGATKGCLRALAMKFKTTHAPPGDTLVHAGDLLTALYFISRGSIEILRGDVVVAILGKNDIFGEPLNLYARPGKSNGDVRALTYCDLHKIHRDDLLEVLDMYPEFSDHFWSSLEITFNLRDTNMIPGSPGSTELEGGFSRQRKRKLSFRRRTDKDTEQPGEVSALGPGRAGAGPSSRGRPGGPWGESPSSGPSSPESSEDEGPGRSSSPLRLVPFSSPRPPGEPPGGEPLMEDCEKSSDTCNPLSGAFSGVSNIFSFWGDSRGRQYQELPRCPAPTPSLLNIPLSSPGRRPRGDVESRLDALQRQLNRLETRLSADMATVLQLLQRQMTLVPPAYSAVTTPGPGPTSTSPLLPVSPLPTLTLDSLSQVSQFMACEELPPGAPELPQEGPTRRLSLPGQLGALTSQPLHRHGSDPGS

SMILES	hERG current change (%, negative = inhibition) at 1uM [%]
CCCCOc1ccc(/C=c2\sc3ncnn3c2=O)cc1	0.729
O/N=C/c1ccn(-c2ccc(Br)cc2)c1	13.6
Cc1ccccc1NC(=O)CCOc1ccccc1	10.9
CN1C(=O)CC(Sc2ccccc2C(=O)O)C1=O (centres unmarked)	-11.6
Clc1cccc(N/N=C/c2ccc(N3CCOCC3)s2)c1	9
Cn1c(CNC(=O)c2ccccc2F)nnc1SCC(=O)NCc1ccccc1	11
N#Cc1c(N)sc(=S)c2c1CCCCC2	5.71
CCn1c(SCC(=O)N/N=C/c2c[nH]c3ccccc23)nnc1-c1ccc(C)cc1	9.39
Cc1ccc(OCC(=O)N2CCc3ccccc3C2)cc1	13.1
OC(CN1CCN(c2ccccc2)CC1)c1ccc2c(c1)CCN2 (centres unmarked)	0.0556
COCCN(CCOC)c1nc(-c2ccc([N+](=O)[O-])cc2)nc2ccccc12	-7.36
O=C(COc1cc(O)c2c(=O)c3ccccc3oc2c1)OCc1ccccc1	10.6
COCCOC(=O)c1c(C)n(C)c2ccc(OC(=O)c3cccs3)cc12	16.2
Cc1ccc(-c2c(C)n([O-])c3c([n+]2=O)CCCC3)o1	10.2
CCSc1nnc(NC(=O)Cn2cnc3c2c(=O)n(C)c(=O)n3C)s1	7.32
COc1ccc(OCCCC(=O)NNC(=O)CCN2CCN(c3ccccc3)CC2)cc1	11.1
O=C(NCc1ccc(Cl)cc1)C(=O)NCC(c1cccnc1)N1CCN(c2ccc(F)cc2)CC1 (centres unmarked)	-4.09
Cc1cc(N)ccc1-n1c(C)ccc1C	7.5
COc1ccc(OC)c(C(=O)CN2CCN(S(=O)(=O)c3ccc(Br)cc3)CC2)c1	5.24
O=C(NCc1ccccc1Cl)c1ccc2c(c1)OCO2	8.05
CC(=O)OCCc1[nH]c2ccccc2c1C	11.5
CCOC(=O)c1c(C)[nH]c(C(=O)Cn2c(=O)oc3ccccc32)c1C	6.13
COc1ccc(CC(=O)Nc2ccc(NC(=O)c3ccccc3F)cc2)cc1	19.9

SMILES	hERG current change (%, negative = inhibition) at 1uM [%]
COc1ccc(NC(=O)CN(C)C(=O)c2ccc(NS(=O)(=O)c3ccc(F)cc3)cc2)cc1	19.7
Cc1nnc(SCC(=O)NC(=O)NC(C)C)s1	9.55
CCOc1cc(/C=N/n2c(C)nc3ccccc3c2=O)ccc1O	18.6
CCN(CC)CCCNc1nc(-c2ccccc2)nc2ccccc12.Cl	-15.9
O=C(O)c1[nH]c2ccc(Cl)cc2c1CCN1C(=O)c2ccccc2C1=O	1.54
Cc1nc(NC(=O)COC(=O)C(C)NC(=O)c2ccccc2)c(Cl)cc1Cl (centres unmarked)	8.59
CCC(C)N(CCNC(=O)c1ccc2c(c1)NC(=O)c1ccccc1S2)C1CCCCC1 (centres unmarked)	2.55
O=C(CCN1C(=O)S/C(=C\c2ccccc2)C1=O)NCCCn1ccnc1	11.2
COc1cc(/C=C2\SC(=S)N(CC(=O)Nc3ccccn3)C2=O)cc(OC)c1OC	16
CCn1nnc2cc(C(=O)N(CCOC)CC(=O)Nc3cccc(C)c3C)ccc21	6.81
NS(=O)(=O)c1ccc(N/N=C/c2ccc(O)cc2O)c([N+](=O)[O-])c1	12.3
Cc1cc(NS(=O)(=O)c2ccc(NC(=O)/C=C/c3ccc(C)o3)cc2)nc(C)n1	14.7
Cc1ccc(NC(=O)c2cncc(Br)c2)cc1S(=O)(=O)N(C)C	16.1
CCOC(=O)c1sc(NC(=O)c2sc(C)nc2C)nc1C	6.2
O=P(Nc1ccccc1)(Oc1ccccc1)Oc1ccccc1	7.83
CS(=O)(=O)c1nc(-c2ccccc2)cc(C(F)(F)F)n1	15.6
CCn1c(C)cc2c(c1=O)C(c1ccccc1)C(C(=O)OC)=C(N)O2 (centres unmarked)	23.4
COC(=O)Cc1ccc2c3ccccc3n(C)c2c1	13
CN1CCN(C(=S)NC(=O)c2ccc(C(C)(C)C)cc2)CC1	3.98
O=C(C1=C[C@H](c2ccc(Br)cc2)C[C@H](OCCCCO)O1)N1CCN(Cc2ccccc2)CC1	-23.1
Cc1cccc(NC(=O)CCS(=O)(=O)c2cc3c(cc2Cl)NC(=O)CO3)c1	4.7
COc1ccc2[nH]c3c(c2c1)CCN1C(=O)N([C@@H](C)C(=O)NC2CC2)C(=O)[C@]31C	2.63
COc1ccc2c(c1OC)C(=O)OC2C1c2cc3c(cc2CCN1C)OCO3 (centres unmarked)	7.16

SMILES	hERG current change (%, negative = inhibition) at 1uM [%]
COc1ccc(C2c3c(ccc4ccccc34)Oc3ncn4nc(-c5ccco5)nc4c32)cc1OC (centres unmarked)	-10.5
Cc1c(Cl)c([N+](=O)[O-])nn1CCCC(=O)O	9.61
CCOC(=O)c1csc(NC(=O)c2ccc(C#N)cc2)n1	9.89
O=C(NC(c1ccc(Cl)cc1)c1cc(Cl)c2cccnc2c1O)c1cccnc1 (centres unmarked)	-1.36
C=CCN(CC=C)C(=O)c1cccc(OC2CCN(CC(C)(C)C)CC2)c1	10.9
CCOC(=O)c1c(-c2ccccc2)oc2ccc(OC(=O)N(C)C)cc12	-6.94
CCO[C@H]1OC(C(=O)N2CCN(C)CC2)=C[C@@H](c2coc3ccccc3c2=O)[C@@H]1CCCO	16.6
CC(C)(C)Nc1nc(NC(C)(C)C)nc(-n2ccnc2)n1	7.48
O=[N+]([O-])c1ccccc1NCCNS(=O)(=O)c1ccc(Cl)cc1	13.1
Oc1cccc(NC(=S)Nc2ccccc2)c1	-0.841
CC(C)n1c(=S)[nH]c2scc(-c3cccs3)c2c1=O	17.5
Cc1csc2nc3ccccc3c(=O)n12	13.7
COc1cc(/C=C2\SC(=O)NC2=O)ccc1Oc1cnccn1	9.73
COc1cccc2cc(NC(=O)C3CCCCC3)c(=O)oc12	9.19
COc1cccc(Oc2nc(-c3ccncc3)nc3ccccc23)c1	13.8
Cc1ccc(N2C(=O)[C@@H]3[C@H](C2=O)C2CCCN2[C@@H]3C(=O)c2ccccc2)cc1 (some centres unmarked)	14.9
CCOC(=O)C1=C(C)NC(=O)C(C(N)=O)C1c1ccccc1 (centres unmarked)	15.8
O=C(Cn1c(=O)c2sccc2n(Cc2ccc([N+](=O)[O-])cc2)c1=O)NCCc1ccccc1	-17
CN1C(=O)N(C)C2(CC1(C)C)CC(C)(C)N(C)C(=O)N2C	11.8
CC(=O)c1cccc(NC(=O)CCN2C(=O)C3CC=CCC3C2=O)c1 (centres unmarked)	8.9
CCCOc1ccc(C(F)(F)F)cc1NC(=O)CN1C(=O)C(=O)N(CC)C1=O	8.1
O=C(ON=C1CCN(S(=O)(=O)c2ccccc2)CC1)c1ccc(F)cc1	4.64
CN(C)S(=O)(=O)c1cccc(NC(=O)c2n[nH]c(=O)c3ccccc23)c1	5.12

SMILES	hERG current change (%, negative = inhibition) at 1uM [%]
COc1ccc(-c2cc(C(=O)O)[nH]n2)cc1OC	5.18
C/C(=N\NC(=O)c1ccco1)c1cccc2ccccc12	13.6
CN1Cc2c(N3CCOCC3)nc3sc(C#N)c(N)c3c2CC1(C)C	9.45
CCC(=O)Nc1ccc(C(=O)CSc2nnc(-c3ccc(O)cc3)n2CC2CCCO2)cc1 (centres unmarked)	20.3
O=C(Nc1ccc(S(=O)(=O)Nc2ccccn2)cc1)c1cccc(Br)c1	17.2
O=c1cc[nH]c(=O)[nH]1	-6.03
O=C(NCCc1ccccc1)C1CCCN1S(=O)(=O)c1ccc(Cl)cc1 (centres unmarked)	7
C=CCC1CCCCC12NC(=O)N(c1ccccc1)N2 (centres unmarked)	5.16
CS(=O)(=O)c1ccc(Cl)c(NC(=O)Cc2ccsc2)c1	14.9
COc1ccc(N2C(N)=NC(N)=NC23CCCC3)cc1.Cl	6.04
CC(C)N1C(=O)C(Cc2nc3ccccc3c(=O)n2-c2ccccc2)c2ccccc21 (centres unmarked)	14.2
COc1ccc(CNC(=O)C23CC4CC(CC(Br)(C4)C2)C3)cc1	18
CN(CC(=O)Nc1ccc(F)c(F)c1F)C(=O)C1CCCC1	8.79
Cc1ccc(C)c(S(=O)(=O)N2CCCC2CNC(=O)C(=O)NC2CCCC2)c1 (centres unmarked)	-1.03
Cn1c(=O)c2sccc2n2c(CCCC(=O)NCCc3ccccc3)nnc12	17.5
O=C(O)CCNC(=O)/C(=C\c1ccco1)NC(=O)c1ccco1	13.1
CCN(C(=O)CN1C(=O)/C(=C/c2ccccc2)SC1=S)C1CCS(=O)(=O)C1 (centres unmarked)	12.5
CC(=O)c1cccc(NC(=O)Nc2ccc(C(=O)N3CCOCC3)cc2)c1	-10.6
Cc1ccc(C)c(NC(=O)c2cc(-c3cc(C)cc(C)c3O)n[nH]2)c1	9.28
COC(=O)C(O)(CC(=O)Nc1ccc(OC)cc1)C(F)(F)F (centres unmarked)	-3.68
